According to the supplement of paper PMC8285479:
Counter-ions that a name gives are not always drawn. ± gives the standard deviation of the averaged measurements. In all, about 1,900 compounds were measured (“normalised cell viability (NPI; 0 = phenylarsine oxide control, 1 = DMSO control)”: median about 1, lowest 2% from about 0.039 on). The list shows a part of the results.

Test system: NCI-H1944
Experiment: normalised cell viability (NPI; 0 = phenylarsine oxide control, 1 = DMSO control) (fraction of DMSO control); NCI-H1944 is a non-small cell lung cancer line; higher = more viable cells (less compound toxicity)
Details: 6 days
[1] = glucocorticoid arm: hydrocortisone 2.75 uM co-treatment, compound 1 µM
[2] = glucocorticoid arm: hydrocortisone 2.75 uM co-treatment, compound 5 µM
[3] = glucocorticoid arm: hydrocortisone 2.75 uM pre-treated 2 days and continued, compound 1 µM
[4] = glucocorticoid arm: hydrocortisone 2.75 uM pre-treated 2 days and continued, compound 5 µM
[5] = glucocorticoid arm: vehicle, compound 1 µM
[6] = glucocorticoid arm: vehicle, compound 5 µM
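Also: CTB read-out in 384-well plates, mean of triplicate wells, normalised per plate against 1 µM phenylarsine oxide and 0.1% DMSO, compounds added 24 h after seeding.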

| SMILES | normalised cell viability [1] | normalised cell viability [2] | normalised cell viability [3] | normalised cell viability [4] | normalised cell viability [5] | normalised cell viability [6] |
| --- | --- | --- | --- | --- | --- | --- |
| COc1ccc(-c2ccc3c(N4CCOC[C@@H]4C)nc(N4CCOC[C@@H]4C)nc3n2)cc1CO | 0.39 ± 0.012 | 0.292 ± 0.01 | 0.498 ± 0.013 | 0.437 ± 0.046 | 0.249 ± 0.016 | 0.164 ± 0.016 |
| NCCC[C@](N)(C(=O)O)C(F)F (racemic) [DL-alpha-Difluoromethylornithine hydrochloride] | 0.9853 ± 0.0063 | 0.923 ± 0.021 | 0.9873 ± 0.0064 | 0.932 ± 0.011 | 0.9863 ± 0.0055 | 0.9817 ± 0.0032 |
| c1ccc(NCc2ccc(CNc3ccccn3)cc2)nc1 | 1.013 ± 0.0058 | 1.002 ± 0.0068 | 1.005 ± 0.0081 | 0.984 ± 0.036 | 0.999 ± 0.0017 | 1.01 |
| COc1ccc2c(OCc3nnc4ccc(-c5ccccc5)nn34)ccnc2c1 | 0.997 ± 0.011 | 0.989 ± 0.014 | 0.999 ± 0.01 | 1 ± 0.016 | 1.003 ± 0.0061 | 0.991 ± 0.017 |
| COc1c2occc2cc2ccc(=O)oc12 [Methoxsalen] | 1.01 ± 0.027 | 0.834 ± 0.065 | 1.01 ± 0.011 | 0.92 ± 0.03 | 1.01 ± 0.01 | 0.774 ± 0.035 |
| CN1CCN(C2=Nc3ccccc3Oc3ccc(Cl)cc32)CC1 [Loxapine succinate] | 1.005 ± 0.0092 | 0.97 ± 0.028 | 0.995 ± 0.0087 | 1.04 ± 0.015 | 0.9983 ± 0.0029 | 1.02 ± 0.021 |
| CC1c2cccc(O)c2C(O)=C2C(=O)C3(O)C(O)=C(C(N)=O)C(=O)C(N(C)C)C3C(O)C21 (centres undefined) [Doxycycline hydrochloride] | 1 | 0.9303 ± 0.0093 | 0.99 ± 0.014 | 0.945 ± 0.018 | 0.9897 ± 0.0067 | 0.9743 ± 0.006 |
| C[C@@]1(C(=O)Nc2ccc(F)nc2)CCCN1c1nc(Nc2cc(C3CC3)n[nH]2)c2cccn2n1 | 0.446 ± 0.025 | 0.455 ± 0.016 | 0.537 ± 0.034 | 0.497 ± 0.093 | 0.595 ± 0.031 | 0.322 ± 0.051 |
| N#Cc1ccc(C(c2ccc(C#N)cc2)n2cncn2)cc1 [Letrozole] | 1.02 ± 0.015 | 1 ± 0.016 | 1.017 ± 0.0058 | 0.967 ± 0.016 | 1 | 1.017 ± 0.0058 |
| O=C(Nc1cccc(Cl)c1)c1ccccn1 | 0.972 ± 0.011 | 0.969 ± 0.012 | 0.9897 ± 0.006 | 0.993 ± 0.017 | 0.971 ± 0.012 | 0.998 ± 0.011 |
| NNCCc1ccccc1 [Phenelzine sulfate] | 0.998 ± 0.01 | 1.03 | 1.02 ± 0.017 | 1.02 ± 0.015 | 0.9807 ± 0.0065 | 0.9783 ± 0.0011 |
| NC1(C(=O)O)CCCCC1 [1-Amino-1-cyclohexanecarboxylic acid hydrochloride] | 0.998 ± 0.011 | 0.9907 ± 0.0081 | 0.9927 ± 0.0049 | 0.991 ± 0.013 | 0.9913 ± 0.009 | 0.999 ± 0.011 |
| CC(=O)Nc1ccc(C(=O)Nc2ccccc2N)cc1 [CI994 (Tacedinaline)] | 0.9813 ± 0.0093 | 1.03 ± 0.029 | 0.999 ± 0.012 | 1.02 ± 0.02 | 0.9707 ± 0.0072 | 0.9157 ± 0.008 |
| CC(=O)Nc1ccc(C(=O)Nc2ccccc2N)cc1 | 1.02 ± 0.011 | 1.063 ± 0.0058 | 1.033 ± 0.0058 | 1.06 ± 0.011 | 0.9833 ± 0.0057 | 0.906 ± 0.052 |
